Laboratory results from the supplement of paper PMC12217912.
This is one part of the list. Sequences were assembled here from the parent chain. Values near 0.05 are background.

B1: TEV protease; numbered along this chain (parent)
chain: MGESLFKGPRDYNPISSSICHLTNESDGHTTSLYGIGFGPFIITNKHLFRRNNGTLVVQSLHGVFKVKDTTTLQQHLVDGRDMIIIRMPKDFPPFPQKLKFREPQREERICLVTTNFQTKSMSSMVSDTSCTFPSGDGIFWKHWIQTKDGQCGSPLVSTRDGFIVGIHSASNFTNTNNYFTSVPKNFMELLTNQEAQQWVSGWRLNADSVLWGGHKVFMVKPEEPFQPVKEATQL

Variants of: B1
Test: raw area under fraction-flipped curve 0-4 h after induction (AUC4h, not background-subtracted), DNA-recorder readout of cleavage of the substrate (dimensionless); higher = more cleavage of the substrate by the protease variant
Settings: temperature: 34 °C; time window: 0-4 h after rhamnose induction
Experimental: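 In vivo DNA recorder in E. coli TOP10(DE3) ΔrhaA at 34 °C. Each TEVp single-site mutant (parent TEVp 0) is paired with a single-site variant of the 7-mer TEVs (canonical ENLYFQ|S). The substrate sits between flexible linkers in a Bxb1-sfGFP-TEVs-SsrA fusion, so cleavage stabilises Bxb1 and speeds flipping of a recombination array, read by NGS. The value is the raw area under the fraction-flipped curve over 0-4 h after rhamnose induction (AUC4h), with ≥20 reads per time point. It is not background-subtracted; inactive controls average about 0.047.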
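Note: Bxb1 expression induced with 0.2% (w/v) L-rhamnose at OD600 near 0.5, cultures sampled hourly, flipped fraction per protease–substrate barcode pair counted by paired-end Illumina sequencing.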

Variant	area with substrate CNLYFQS	area with substrate HNLYFQS	area with substrate MNLYFQS	area with substrate PNLYFQS	area with substrate TNLYFQS	area with substrate VNLYFQS	area with substrate WNLYFQS	area with substrate GNLYFQS	area with substrate INLYFQS	area with substrate KNLYFQS	area with substrate LNLYFQS	area with substrate RNLYFQS	area with substrate FNLYFQS	area with substrate YNLYFQS	area with substrate QNLYFQS	area with substrate SNLYFQS	area with substrate NNLYFQS
MGESLFKGPRDYNPISSSICHLTNESDGHTTSLYGIGFGPFIITNKHLFRRNNGTLVVQSLHGVFKVKDTTTLQQHLVDGRDMIIIRMPKDFPPFPQQLKFREPQREERICLVTTNFQTKSMSSMVSDTSCTFPSGDGIFWKHWIQTKDGQCGSPLVSTRDGFIVGIHSASNFTNTNNYFTSVPKNFMELLTNQEAQQWVSGWRLNADSVLWGGHKVFMVKPEEPFQPVKEATQL [K98Q]	0.072	0.0487	0.049	0.0671	0.077	0.0581	0.0582	–	–	–	–	–	–	–	–	–	–
MGESLFKGPRDYNPISSSICHLTNESDGHTTSLYGIGFGPFIITNKHLFRRNNGTLVVQSLHGVFKVKDTTTLQQHLVDGRDMIIRRMPKDFPPFPQKLKFREPQREERICLVTTNFQTKSMSSMVSDTSCTFPSGDGIFWKHWIQTKDGQCGSPLVSTRDGFIVGIHSASNFTNTNNYFTSVPKNFMELLTNQEAQQWVSGWRLNADSVLWGGHKVFMVKPEEPFQPVKEATQL [I86R]	0.0339	0.027	0.0412	0.0427	0.0565	–	0.0511	0.0387	0.0414	0.042	0.0468	0.0311	–	–	–	–	–
MGESLFKGPRDYNPISSSICHLTNESDGHTTSLYGIGFGPFIITNKHLFRRNNGTLVVQSLHGVFKVKDTTTLQQHLVDGRDMIIFRMPKDFPPFPQKLKFREPQREERICLVTTNFQTKSMSSMVSDTSCTFPSGDGIFWKHWIQTKDGQCGSPLVSTRDGFIVGIHSASNFTNTNNYFTSVPKNFMELLTNQEAQQWVSGWRLNADSVLWGGHKVFMVKPEEPFQPVKEATQL [I86F]	0.0646	0.0695	0.0622	0.0653	0.0671	–	0.0641	0.0599	0.0739	0.0663	–	0.0463	0.053	0.049	–	–	–
MGESLFKGPRDYNPISSSICHLTNESDGHTTSLYGIGFGPFIITNKHLFRRNNGTLVVQSLHGVFKVKDTTTLQQHLVDGRDMIIIRMPKDFPPSPQKLKFREPQREERICLVTTNFQTKSMSSMVSDTSCTFPSGDGIFWKHWIQTKDGQCGSPLVSTRDGFIVGIHSASNFTNTNNYFTSVPKNFMELLTNQEAQQWVSGWRLNADSVLWGGHKVFMVKPEEPFQPVKEATQL [F95S]	0.0554	0.0665	0.058	0.0525	–	0.0627	0.0541	0.0662	–	0.0694	0.0551	0.0654	0.0609	0.0566	0.0376	0.0613	–
MGESLFKGPRDYNPISSSICHLTNESDGHTTSLYGIGFGPFIITNKHLFRRNNGTLVVQSLHGVFKVKDTTTLQQHLVDGRDMIIIRMPKDFPPRPQKLKFREPQREERICLVTTNFQTKSMSSMVSDTSCTFPSGDGIFWKHWIQTKDGQCGSPLVSTRDGFIVGIHSASNFTNTNNYFTSVPKNFMELLTNQEAQQWVSGWRLNADSVLWGGHKVFMVKPEEPFQPVKEATQL [F95R]	0.045	0.043	0.0239	0.061	0.0592	0.0541	0.05	0.0619	0.0565	0.0668	0.0503	–	0.0562	0.05	0.0681	0.0551	0.0402
MGESLFKGPRDYNPISSSICHLTNESDGHTTSLYGIGFGPFIITNKHLFRRNNGTLVVQSLHGVFKVKDTTTLQQHLVDGRDMIIIRMPFDFPPFPQKLKFREPQREERICLVTTNFQTKSMSSMVSDTSCTFPSGDGIFWKHWIQTKDGQCGSPLVSTRDGFIVGIHSASNFTNTNNYFTSVPKNFMELLTNQEAQQWVSGWRLNADSVLWGGHKVFMVKPEEPFQPVKEATQL [K90F]	0.0655	0.0535	0.111	0.079	–	–	0.0665	–	0.053	0.0418	0.0781	–	–	–	–	–	–
MGESLFKGPRDYNPISSSICHLTNESDGHTTSLYGIGFGPFIITNKHLFRRNNGTLVVQSLHGVFKVKDTTTLQQHLVDGRDMIIIRMPIDFPPFPQKLKFREPQREERICLVTTNFQTKSMSSMVSDTSCTFPSGDGIFWKHWIQTKDGQCGSPLVSTRDGFIVGIHSASNFTNTNNYFTSVPKNFMELLTNQEAQQWVSGWRLNADSVLWGGHKVFMVKPEEPFQPVKEATQL [K90I]	0.0704	0.0629	0.062	0.0856	0.0699	0.0467	0.0509	0.0733	0.0766	–	0.0644	–	0.0566	0.0543	0.067	0.0629	0.0419
MGESLFKGPRDYNPISSSICHLTNESDGHTTSLYGIGFGPFIITNKHLFRRNNGTLVVQSLHGVFKVKDTTTLQQHLVDGRDMIIIRMPKDTPPFPQKLKFREPQREERICLVTTNFQTKSMSSMVSDTSCTFPSGDGIFWKHWIQTKDGQCGSPLVSTRDGFIVGIHSASNFTNTNNYFTSVPKNFMELLTNQEAQQWVSGWRLNADSVLWGGHKVFMVKPEEPFQPVKEATQL [F92T]	0.0912	0.0533	0.0569	0.0651	–	0.0816	0.0395	–	–	–	0.0615	–	0.0558	0.0767	0.0726	0.0368	–
MGESLFKGPRDYNPISSSICHLTNESDGHTTSLYGIGFGPFIITNKHLFRRNNGTLVVQSLHGVFKVKDTTTLQQHLVDGRDMICIRMPKDFPPFPQKLKFREPQREERICLVTTNFQTKSMSSMVSDTSCTFPSGDGIFWKHWIQTKDGQCGSPLVSTRDGFIVGIHSASNFTNTNNYFTSVPKNFMELLTNQEAQQWVSGWRLNADSVLWGGHKVFMVKPEEPFQPVKEATQL [I85C]	0.0551	0.052	0.0598	–	0.0519	0.0656	0.0613	0.0838	–	–	–	0.0402	0.0589	0.0501	0.0638	0.0583	–
